Measured values taken from PubChem BioAssay (NCATS).
The shares of active, inactive and inconclusive entries below differ from those in the screen. Where the call is inconclusive, the potency comes from a doubtful curve fit. Activity calls are given as the source filed them. Calls follow the shape of the dose curve; as a rule, active = well fitted cell-killing curve with a large enough effect; inconclusive = small, poorly fitted or top-dose-only effect; inactive = flat fitted curve, though single readings scatter.
% is scaled to controls: 0 for no effect and ±100 for the full control effect; potency is read from the fitted curve at half-maximal effect; tags tell the direction and shape of the fitted curve.

Test: NCATS anti-infectives library activity on HEK293 viability as a counter-qHTS vs the C. elegans viability qHTS (AID 1745854)
Conditions: HEK293 viability counter-screen; series mostly up to 41.8 µM; activity change, negative = cytotoxicity: at the top concentration
Source text: Assay Development and Screening Technology Laboratory (ADST)
National Center for Advancing Translational Sciences (NCATS), Rockville, MD
National Institute of Health (NIH), Bethesda, Maryland
Caenorhabditis elegans has helped elucidate the evolutionarily conserved genetics underlying pathways and cellular processes implicated in human disease and may be ideally positioned to reveal novel pharmacological properties of exiting drugs. The organism's short life cycle and microscopic size is applicable to the technical requirements of high-throughput screening. Here a quantitative high-throughput screening (qHTS)-based forward chemical biology platform has been developed using C. elegans. 384-well microtiter plate laser scanning cytometry was used in the rapid detection and quantification of the fluorescent protein-encoded phenotype to score worm viability. In a proof-of-concept study, the pharmacological qHTS profile obtained from a library of 643 anti-infective compounds.
1. Inglese, J., Auld, D. S., Jadhav, A., Johnson, R. L., Simeonov, A., Yasgar, A., Zheng, W., and Austin, C. P. (2006) Quantitative high-throughput screening: A titration-based approach that efficiently identifies biological activities in large chemical libraries, P Natl Acad Sci USA 103, 11473-11478.
2. Auld, D. S., Johnson, R. L., Zhang, Y. Q., Veith, H., Jadhav, A., Yasgar, A., Simeonov, A., Zheng, W., Martinez, E. D., Westwick, J. K., Austin, C. P., and Inglese, J. (2006) Fluorescent protein-based cellular assays analyzed by laser-scanning microplate cytometry in 1536-well plate format, Method Enzymol 414, 566-589.
3. Zuck, P., Lao, Z., Skwish, S., Glickman, J. F., Yang, K., Burbaum, J., and Inglese, J. (1999) Ligand-receptor binding measured by laser-scanning imaging, Proc Natl Acad Sci U S A 96, 11122-11127.
PROTOCOL TABLE (as described by Inglese J, Shamu CE and Guy RK. 2007)
SEQUENCE No. (e.g., 1, 2, 3, etc.); […] (e.g., C. elegans, Compounds, Incubation, Read, etc.); VALUE and DESCRIPTION.
1. Compounds. Library compounds and digitonin control added at 25 nL per well to 7 assay ready 1536-well Greiner white/solid bottom high base, TC plates and two DMSO control plates, transferred by Echo acoustic dispenser.
2. Cells. Seed 1500 HEK293 per well in 6 uL into assay ready Greiner 1536-well plates.
3. Incubation. Incubate plated cells with compounds at 37C in 5% CO2, 95% RH for 24 hr.
4. Reagent. Add 4 uL of CellTiter-Glo reagent from Promega per well of Greiner 1536-well plates with BioRAPTR FRD.
5. Incubation. Incubate treated cells at room temperature for 10 min., protect from light.
6. Detector. CellTiter-Glo luminescence measured using CCD-based camera (Viewlux) with settings as follows: Exposure, 1 sec; Gain, High; Speed, Slow; Binning, 2X.
NOTES (numbers refer to Sequence numbers above; values are from representative experiments)
1. NIH Anti-Infectives library pre-dispensed into 7 assay ready 1536-well Greiner white/solid bottom high base, TC plates with Echo 555 acoustic dispenser. Most compounds dispensed at 10 mM high concentration and plated in 7-pt 1:5 inter-plate titration at 25 nl / well for a final assay concentration range of 41.7 uM - 2.7 nM. Two 1536-well Greiner assay plates of DMSO plated as screening controls to be read at the beginning and the end of the screen. Controls included DMSO vehicle control added at 25 nl/well to each well of column 1 and […] (83.3 uM final assay concentration), and Digitonin titrated 1:2 at 25 nl/ well to column 4 in duplicate for a final assay concentration range of 83.3 uM - 2.5 nM.
2. HEK293 cells grown for 48 hr in one T175 culture flask in DMEM high glucose media supplemented with 10% FBS and 1% Pen/Strep antibiotic. Cells trypsinized and diluted in 10 ml supplemented media, strained through 40 µm cell strainer, and diluted to a total volume of 40 ml with supplemented media. […]
In the case of `O=C(CCCCCCC(=O)N/N=C/c1ccc(N(c2ccccc2)c2ccccc2)cc1)NO`, the Potency is reported as inconclusive: 11.2 µM [cytotoxic, partial curve].
With `O=C(CCCCCCNC(=O)c1cnc(N(c2ccccc2)c2ccccc2Cl)nc1)NO` the “activity change, negative = cytotoxicity” value was inactive: 3.65%.
In the case of `C=C1C(=O)O[C@H]2[C@H]1CC/C(C)=C/CC[C@@]1(C)O[C@@H]21`, the Potency is reported as inconclusive: 31.6 µM [cytotoxic, single point].
With `CCN(CC)CCNc1ccc(C)c2sc3ccccc3c(=O)c12` the Potency was inconclusive: 12.6 µM [cytotoxic, single point].
With `CCC[C@H](NC(=O)/C(C#N)=C/c1cccc(Br)n1)c1ccccc1` the Potency was inconclusive: 22.4 µM [cytotoxic, single point].
In the case of `CNc1ncnc2c1ncn2[C@@H]1O[C@H](CO)[C@@H](O)[C@H]1O`, the “activity change, negative = cytotoxicity” value is reported as inactive: 10.1%.
With `O=C(/C=C/c1ccc(CN(CCO)CCc2c[nH]c3ccccc23)cc1)NO` the Potency was inconclusive: 35.5 µM [cytotoxic, single point].
In the case of `O=C(OC[C@H]1O[C@@H](OC(=O)c2cc(O)c(O)c(O)c2)[C@H](OC(=O)c2cc(O)c(O)c(O)c2)[C@@H](OC(=O)c2cc(O)c(O)c(O)c2)[C@@H]1OC(=O)c1cc(O)c(O)c(O)c1)c1cc(O)c(O)c(O)c1`, the Potency is reported as inconclusive: 22.4 µM [cytotoxic, single point].
In the case of `O=C(/C=C\n1cnc(-c2cc(C(F)(F)F)cc(C(F)(F)F)c2)n1)NNc1cnccn1`, the Potency is reported as inconclusive: 0.158 µM [cytotoxic, full curve].
With `O=C(CCCCCN1C(=O)c2cccc3cccc(c23)C1=O)NO` the Potency was inconclusive: 31.6 µM [cytotoxic, single point].
For `CCC[C@H](NC(=O)[C@@H]1[C@H]2CCC[C@H]2CN1C(=O)[C@@H](NC(=O)[C@@H](NC(=O)c1cnccn1)C1CCCCC1)C(C)(C)C)C(=O)C(=O)NC1CC1`, the “activity change, negative = cytotoxicity” value was inactive: -15%.
In the case of `COC(=O)N[C@H](C(=O)N1CCC[C@H]1c1ncc(-c2ccc(-c3ccc(-c4cnc([C@@H]5CCCN5C(=O)[C@@H](NC(=O)OC)C(C)C)[nH]4)cc3)cc2)[nH]1)C(C)C`, the Potency is reported as inconclusive: 11.2 µM [cytotoxic, partial curve, poor fit].
For `CC(=O)N=c1sc(S(N)(=O)=O)nn1C`, the “activity change, negative = cytotoxicity” value was inactive: 3.23%.
With `O=C(/C=C\n1cnc(-c2cc(C(F)(F)F)cc(C(F)(F)F)c2)n1)NNc1ccccn1` the Potency was inconclusive: 3.55 µM [cytotoxic, partial curve, poor fit].
For `C=CC(=O)N1CC/C(=C\c2ccc(F)c([N+](=O)[O-])c2)C(=O)/C(=C/c2ccc(F)c([N+](=O)[O-])c2)C1`, the Potency was active: 1.78 µM.
